# Target: TCR Vδ2 (TRDV2) on γδ T cells in PBMCs (human), A0JD36
# Experiment: cell-based or functional assay
# Chain of TCR Vδ2 (TRDV2) on γδ T cells in PBMCs (human), A0JD36 (A0JD36 20-115, stated change not applied): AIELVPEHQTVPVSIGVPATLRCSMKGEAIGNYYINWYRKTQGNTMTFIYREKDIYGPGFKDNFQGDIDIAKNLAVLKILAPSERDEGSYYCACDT
"CD25+ (Vg9+ cells), flow staining","CD71+ (Vg9+ cells), flow staining","Granzyme B (Luminex, supernatant)","IFNγ (Luminex, supernatant)","IL6 (Luminex, supernatant)","TNFα (Luminex, supernatant)","Vg9 T cell %, flow staining",Binder
27.4%,79.7%,500,138,144,1150,8.4%,"VG9B81 (antibody, human IgG1, kappa) heavy: QVQLQESGPGLVKPSETLSLTCSVSGGSINTYYWSWFRQPAGKGLELIGRIYTSDNTNYNPSLKSRVTMSVDTSKNQFSLKLSSVTAADTAVYYCARYNWNYWYFDLWGRGTLVTVSS[human IgG1 constant region omitted here] light: DIQMTQSPSFLSASVRDRVNITCRASQGISSYLAWYQQKPGKAPKLLIYTASTLQSGVPSRFSGSGSGTEFTLTISSLQPEDFATYYCQHLNSYPYTFGQGTKVEIKRTVAAPSVFIFPPSDEQLKSGTASVVCLLNNFYPREAKVQWKVDNALQSGNSQESVTEQDSKDSTYSLSSTLTLSKADYEKHKVYACEVTHQGLSSPVTKSFNRGEC"
19%,90.2%,525,44,30,22,4.5%,"VG9B203 (antibody, human IgG1, lambda) heavy: QVQLVQSGPGLVKPSETLSLTCTVSGDSIGHYYWNWIRQPAGKGLEWIGRIYTSGSTNYNPSLKSRVTMSVDTSKNQFSLKLSSVTAADTAVYYCARSGGNFYWYFDLWGRGTLVTVSS[human IgG1 constant region omitted here] light: QSVLTQPPSVSAAPGQKVTISCSGSSSNIGNNYVSWYQQVPGTAPKLLIYDNNKRPSGIPDRISGSKSGTSATLGITGLQTGDEADYYCGTWDSSLSAGVFGGGTKVTVLGQPKAAPSVTLFPPSSEELQANKATLVCLISDFYPGAVTVAWKADSSPVKAGVETTTPSKQSNNKYAASSYLSLTPEQWKSHRSYSCQVTHEGSTVEKTVAPTECS"
46.6%,96.4%,3210,889,298,4760,5%,"VG9B103 (antibody, human IgG1, kappa) heavy: EVQLVQSGAEVKKPGSSVKVSCKTSGGTFSSYAISWVRQAPGQGLEWMGGIIPIFGTATYAQKFQDRVTITADKSTSTAYMELSSLRSEDTAVFYCARGVGWGTDYYYGLDVWGQGTTVTVSS[human IgG1 constant region omitted here] light: ETTLTQSPLSSPVTLGQPASISCRSSQGLVHSDGNTYLSWLQQRPGQSPRLLIYKISNRFSGVPDRFSGSGAGTDFTLKISRVEAEDVGVYYCMQATHHPLTFGGGTKVEIKRTVAAPSVFIFPPSDEQLKSGTASVVCLLNNFYPREAKVQWKVDNALQSGNSQESVTEQDSKDSTYSLSSTLTLSKADYEKHKVYACEVTHQGLSSPVTKSFNRGEC"
12%,89%,307,44,81,–,3%,"VG9B147 (antibody, human IgG1, lambda) heavy: QVQLQESGPGLVNPSETLSLTCTVSGGSISGYFWNWIRQPPGKGLEWIGYIFYSGSTNYNPSLKSRVTISVDTSKNQFSLKLSSVTAADTAIYYCAREGKWELRSTFDIWGQGTMVTVSS[human IgG1 constant region omitted here] light: SSELTQDPAVSVALGQTVRITCQGDSLRSYYATWYQQKPGQAPILVIYGENNRPSGIPDRFSGSRSGNTASLTITGAQAEDEADYYCNSRDTGDHHLVFGGGTKLTVLGQPKAAPSVTLFPPSSEELQANKATLVCLISDFYPGAVTVAWKADSSPVKAGVETTTPSKQSNNKYAASSYLSLTPEQWKSHRSYSCQVTHEGSTVEKTVAPTECS"
15.5%,84.3%,228,44,21,15,4.2%,"VG9B380 (antibody, human IgG1, lambda) heavy: QVQLQESGPGLVKPSETLSLTCTVSGGSISNYYWSWIRQPAGKGLEWIGRIYPSGITSYDPSLKSRVTMSLDTSKNQFSLKLTSVTAADTAVYYCAGIMGTKGAFDIWGQGTMVTVSS[human IgG1 constant region omitted here] light: QSALTQPASVSGSPGQSITISCTGTSSDVGGYNYVSWYQQHPGKAPKLLIYEVSNRPSGVSNRFSGSKSGSTASLTISGLQAEDEADYYCSSYTSTSVVFGGGTKLTVLGQPKAAPSVTLFPPSSEELQANKATLVCLISDFYPGAVTVAWKADSSPVKAGVETTTPSKQSNNKYAASSYLSLTPEQWKSHRSYSCQVTHEGSTVEKTVAPTECS"

# Target: T cell receptor (TCR) Vγ9 (TRGV9) on Vγ9+ T cells in PBMCs (human), Q99603
# Sequence (Q99603 21-122): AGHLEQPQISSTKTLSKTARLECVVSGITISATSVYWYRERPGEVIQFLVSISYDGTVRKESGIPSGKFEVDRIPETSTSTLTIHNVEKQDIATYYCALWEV
# Experiment: cell-based or functional assay
"CD25+ (Vg9+ cells), flow staining","CD71+ (Vg9+ cells), flow staining","Granzyme B (Luminex, supernatant)","IFNγ (Luminex, supernatant)","IL6 (Luminex, supernatant)","TNFα (Luminex, supernatant)","Vg9 T cell %, flow staining",Binder
11.4%,87.5%,1090,155,113,32,6.2%,"VG9B143 (antibody, human IgG1, lambda) heavy: EVQLVESGGGLVQPGGSLRLSCAASGFTFSTYGMNWVRQAPGKGLEWISYISTSSYTIYYSDSVKGRFTVSRDNAKNSLYLQMNSLRDEDTAVYYCAREGDWWYFDLWGRGTTVTVSS[human IgG1 constant region omitted here] light: QSALTQPASVSGSPGQSITISCTGTSSDVGGYNYVSWYQQHPGKAPKLMIYEVSNRPSGVSYRFSGSKSGNTASLTISGLQAEDEADYYCSSYTSSSTLVFGGGTKLTVLGQPKAAPSVTLFPPSSEELQANKATLVCLISDFYPGAVTVAWKADSSPVKAGVETTTPSKQSNNKYAASSYLSLTPEQWKSHRSYSCQVTHEGSTVEKTVAPTECS"
34.2%,98.1%,4250,2430,362,216,5%,"VG9B419 (antibody, human IgG1, kappa) heavy: EVQLVESGGGLVKPGGSLRLSCSASGFTFSNYDMNWVRQAPGKGLEWVSSISSSSSYIYYADSVKGRFTISRDNAKNSLYLQMNSLRAEDTAVYHCARDVGVTTDYYYYGMDVWGQGTTVTVSS[human IgG1 constant region omitted here] light: EIVLTQSPGTLSLSPGDRATLSCRASQSVASSYLAWYQQKPGQSPRLLIYGASSRATGIPDRFSGSGSGTDFTLTISRLEPEDFAVYYCQQYGSSPPYTFGQGTKVEIKRTVAAPSVFIFPPSDEQLKSGTASVVCLLNNFYPREAKVQWKVDNALQSGNSQESVTEQDSKDSTYSLSSTLTLSKADYEKHKVYACEVTHQGLSSPVTKSFNRGEC"
46.9%,99.2%,3890,2180,279,163,13.3%,"VG9B418 (antibody, human IgG1, kappa) heavy: EVQLVQSGGGLVKPGGSLRLSCSASGFTFSNYDMNWVRQAPGKGLEWVSSISSSSSYIYYADSVKGRFTISRDNAKNSLYLQMNSLRAEDTAVYHCARDVGVTTDYYYYGMDVWGQGTMVTVSS[human IgG1 constant region omitted here] light: EIVLTQSPGTLSLSPGDRATLSCRASQSVASSYLAWYQQKPGQSPRLLIYGASSRATGIPDRFSGSGSGTDFTLTISRLEPEDFAVYYCQQYGSSPPYTFGQGTKLEIKRTVAAPSVFIFPPSDEQLKSGTASVVCLLNNFYPREAKVQWKVDNALQSGNSQESVTEQDSKDSTYSLSSTLTLSKADYEKHKVYACEVTHQGLSSPVTKSFNRGEC"
23.4%,96.6%,2780,575,394,84,6.3%,"VG9B472 (antibody, human IgG1, kappa) heavy: QVQLVESGGGLVKPGGSLRLSCAASGFTFSHYDMNWVRQAPGKGLEWVSSISSSSSYIFYADSVKGRFTISRDNAKNSLLLQMNSLRAEDTAVYHCARDRGVGDTSDYYSFGLDVWGQGTTVTVSS[human IgG1 constant region omitted here] light: EIVLTQSPSSLSASVGDRVTITCRASQGIATYLAWYQQKPGKVPNLLIYAASTLQSGVPSRFSGSGSGTDFTLTISSLQPEDVATYYCQKYNSAPPWTFGQGTKVEIKRTVAAPSVFIFPPSDEQLKSGTASVVCLLNNFYPREAKVQWKVDNALQSGNSQESVTEQDSKDSTYSLSSTLTLSKADYEKHKVYACEVTHQGLSSPVTKSFNRGEC"
36.7%,98.7%,6130,2450,604,255,7.1%,"VG9B421 (antibody, human IgG1, kappa) heavy: EVQLVESGGGLVKPGGSLRLSCAASGFTFSNYGMNWVRQAPGKGLEWVSYISSGSSYKYYADSMKGRFTISRDNAMNLLYLQMNSLRPEDSAMYYCARDPVVTEYYYYGMDVWGQGTMVTVSS[human IgG1 constant region omitted here] light: DIQMTQSPSSVSASVGDRVTITCRASQGINSWLAWYQQKPGNAPKLLIYAASSLQSGVPSRFSGIGSGTDFIFTISSLQPEDFASYYCQQANSFPWTFGQGTRLEIKRTVAAPSVFIFPPSDEQLKSGTASVVCLLNNFYPREAKVQWKVDNALQSGNSQESVTEQDSKDSTYSLSSTLTLSKADYEKHKVYACEVTHQGLSSPVTKSFNRGEC"
15.1%,88.1%,2380,1530,551,1260,4.1%,"VG9B88 (antibody, human IgG1, kappa) heavy: EVQLVESGGGLVKPGGSLRLSCAVSGFTFSSYTMNWVRQAPGKGLEWVSSISTSSSYIDYADSVKGRFTISRDNAKKSLYLQMNSLRAEDTAVYYCARDGDMVAPIKGSFDYWGQGTLVTVSS[human IgG1 constant region omitted here] light: EIVLTQSPLSLPVTPGEPASISCRSSQSLLNSDDGNTYLDWYLQKPGQSPQLLIYTLSYRASGVPDRFSGSGSGTDFTLKISRVEAEDVGVYYCMQRIEFPITFGQGTRLEIKRTVAAPSVFIFPPSDEQLKSGTASVVCLLNNFYPREAKVQWKVDNALQSGNSQESVTEQDSKDSTYSLSSTLTLSKADYEKHKVYACEVTHQGLSSPVTKSFNRGEC"

# Reference: patent US20220125947A1
